Molecular target: T1, Recombinant human BMP-6 (human, UniProt P22004 375-513)
T1 sequence (looked up): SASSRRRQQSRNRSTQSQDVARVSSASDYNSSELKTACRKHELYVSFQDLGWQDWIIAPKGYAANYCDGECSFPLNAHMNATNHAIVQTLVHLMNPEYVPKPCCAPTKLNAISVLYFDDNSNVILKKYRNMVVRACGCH
Assay: SPR

B1: ActRIIA-Fc (Fc fusion)
chain: not shown
binding result: binds
